We go through 45 compounds from PMC4336329 (PLoS ONE, 2015).

In all, about 310,000 compounds went through this assay and about 14,000 (4.5%) showed an effect of 50% or more. The effect is printed as a negative number. This is one part of the list.
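Also: peak tail current of the secondary pulse compared with the same well before compound.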

The target of this assay is human ether-à-go-go-related gene (hERG) potassium channel (human, UniProt Q12809). The assay can be described thus: primary screen, population patch clamp on CHO cells stably expressing hERG.
human ether-à-go-go-related gene (hERG) potassium channel, sequence (Q12809 whole entry, looked up): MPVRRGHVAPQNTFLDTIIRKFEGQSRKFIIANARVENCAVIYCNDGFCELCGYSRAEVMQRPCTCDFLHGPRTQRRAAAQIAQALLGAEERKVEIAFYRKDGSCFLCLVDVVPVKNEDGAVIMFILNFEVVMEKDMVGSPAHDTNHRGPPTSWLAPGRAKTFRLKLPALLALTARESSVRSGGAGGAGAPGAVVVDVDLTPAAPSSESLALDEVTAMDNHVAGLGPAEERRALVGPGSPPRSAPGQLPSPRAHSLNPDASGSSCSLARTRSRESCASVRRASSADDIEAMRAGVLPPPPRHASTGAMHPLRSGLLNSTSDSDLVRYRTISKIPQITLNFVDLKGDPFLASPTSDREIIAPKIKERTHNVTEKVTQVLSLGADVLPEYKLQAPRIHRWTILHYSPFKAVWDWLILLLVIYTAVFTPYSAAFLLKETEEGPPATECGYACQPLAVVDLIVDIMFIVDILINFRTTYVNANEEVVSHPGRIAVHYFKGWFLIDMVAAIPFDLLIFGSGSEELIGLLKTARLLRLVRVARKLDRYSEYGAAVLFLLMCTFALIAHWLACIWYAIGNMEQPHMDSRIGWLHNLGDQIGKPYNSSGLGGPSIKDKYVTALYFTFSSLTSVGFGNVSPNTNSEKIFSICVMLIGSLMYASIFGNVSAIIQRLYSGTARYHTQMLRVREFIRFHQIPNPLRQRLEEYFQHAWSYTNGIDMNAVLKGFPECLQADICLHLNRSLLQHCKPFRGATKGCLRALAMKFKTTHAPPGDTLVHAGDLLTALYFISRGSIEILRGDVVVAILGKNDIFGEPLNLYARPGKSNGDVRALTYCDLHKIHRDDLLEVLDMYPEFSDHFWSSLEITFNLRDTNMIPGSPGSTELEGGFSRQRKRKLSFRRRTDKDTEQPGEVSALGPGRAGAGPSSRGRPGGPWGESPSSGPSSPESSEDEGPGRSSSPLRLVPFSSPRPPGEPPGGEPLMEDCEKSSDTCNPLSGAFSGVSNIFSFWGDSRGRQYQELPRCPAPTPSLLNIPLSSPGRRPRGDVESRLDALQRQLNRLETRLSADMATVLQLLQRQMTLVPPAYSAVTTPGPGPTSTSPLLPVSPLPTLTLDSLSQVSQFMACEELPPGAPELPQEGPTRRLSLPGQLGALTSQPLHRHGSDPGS
For the compound `Cc1ccc(OC(=O)c2ccc(C)c(C)c2)cn1`, the “hERG current change (%, negative = inhibition) at 10uM” value is on record as -0.436%.

As for `CCOC(=O)C1CCN(CCCSc2ccccc2)CC1.Cl`, the “hERG current change (%, negative = inhibition) at 10uM” value is recorded as -62.4%.

As for `COc1cccc(NC(=O)CN(C)C(=O)c2cc(S(=O)(=O)NCc3ccccc3)ccc2C)c1`, the “hERG current change (%, negative = inhibition) at 10uM” value is recorded as -71.1%.

As for `CC(C)NC(=O)C1CCN(C2CCN(C(=O)c3cc4c(s3)CCCCC4)CC2)CC1`, the “hERG current change (%, negative = inhibition) at 10uM” value is listed as -51.8%.

For `COc1nc(-c2ccccc2)ccc1-c1noc(COc2ccccc2)n1`, the “hERG current change (%, negative = inhibition) at 10uM” value amounted to 15.2%.

Turning to `Cc1cccc(C)c1NC(=O)c1cccnc1`, the “hERG current change (%, negative = inhibition) at 10uM” value is reported as 18%.

In the case of `Nc1nc(C(=O)N2CCOCC2)nn1S(=O)(=O)c1ccccc1`, the “hERG current change (%, negative = inhibition) at 10uM” value is reported as 11.3%.

Take `CCN(CC(=O)Nc1ccccc1C(F)(F)F)C(=O)CN1C(=O)NC2(CCCC2)C1=O`: the “hERG current change (%, negative = inhibition) at 10uM” value is on record as -9.42%.

`Cc1ccc2nc(NC(=O)/C=C/c3ccc4c(c3)OCO4)sc2c1`: the “hERG current change (%, negative = inhibition) at 10uM” value was determined as 14.8%.

`O=C(O)/C=C/C(=O)NCCc1ccc(Cl)cc1`: the “hERG current change (%, negative = inhibition) at 10uM” value is on record as 12.7%.

Regarding `CC(C)CC(NC(=O)C1CCC(C)CC1)C(=O)Nc1ccccn1` (stereo not drawn), the “hERG current change (%, negative = inhibition) at 10uM” value is reported as -11%.

In the case of `Cc1cc(Br)ccc1NC(=O)CCN1C(=O)c2ccncc2C1=O`, the “hERG current change (%, negative = inhibition) at 10uM” value is reported as -3.48%.

As for `COCCCNCC1C(Oc2ccc(Cl)cc2)C(=O)N1c1ccccc1C` (stereo not drawn), the “hERG current change (%, negative = inhibition) at 10uM” value was -8.54%.

In the case of `FC(F)(F)c1cccc(NC(=S)Nc2cccc(Cl)c2)c1`, the “hERG current change (%, negative = inhibition) at 10uM” value is given as 4.53%.

Consider `CN(C)CCOC(=O)NCC12CC3CC(CC(C3)C1)C2.Cl`, for which the “hERG current change (%, negative = inhibition) at 10uM” value was determined as 1.57%.

For the compound `Cc1oc(S(=O)(=O)N2CCOCC2)cc1C(=O)Nc1ccc(Cl)cc1`, the “hERG current change (%, negative = inhibition) at 10uM” value is -2.49%.

Consider `O=C(CCS(=O)(=O)c1ccccc1)N1CCCc2ccccc21`, for which the “hERG current change (%, negative = inhibition) at 10uM” value is given as 3.48%.

`COC(=O)CSc1nc(N)c(C#N)c(CC(C)C)c1C#N`: the “hERG current change (%, negative = inhibition) at 10uM” value was determined as 3.52%.

Turning to `Cc1cc(=O)[nH]c(SCCCOc2ccccc2Cl)n1`, the “hERG current change (%, negative = inhibition) at 10uM” value is on record as 3.82%.

On to `O=C(Nc1ccc(N2CCN(C(=O)c3ccccc3)CC2)cc1)c1ccc2c(c1)OCO2`, for which the “hERG current change (%, negative = inhibition) at 10uM” value was -16.4%.

`Cc1ccc(NC(=S)N2CCc3[nH]c4ccccc4c3C2)cc1`: the “hERG current change (%, negative = inhibition) at 10uM” value stood at 9.63%.

With `Cc1ccc(-c2cn3cccnc3n2)cc1NC(=O)c1cccs1`, the “hERG current change (%, negative = inhibition) at 10uM” value was 0.102%.

Consider `Cc1ccc(S(=O)(=O)N2CCN(C(=O)c3ccccc3)CC2)c(C)c1NS(C)(=O)=O`, for which the “hERG current change (%, negative = inhibition) at 10uM” value is 3.29%.

With `CN(CC(=O)Nc1ccccc1Cl)C(=O)c1cccc(-n2cccc2)c1`, the “hERG current change (%, negative = inhibition) at 10uM” value is recorded as -19.4%.

Consider `COC(=O)c1ccc(OCC(=O)Nc2nn(-c3ccccc3)nc2C(N)=O)cc1`, for which the “hERG current change (%, negative = inhibition) at 10uM” value is on record as -5.7%.

Regarding `COC(=O)c1ccc(C(C(=O)NCc2ccccc2)N(Cc2cccs2)C(=O)c2cnccn2)cc1` (stereo not drawn), the “hERG current change (%, negative = inhibition) at 10uM” value is given as -23.2%.

Consider `C=CCNC(=S)NCC`, for which the “hERG current change (%, negative = inhibition) at 10uM” value amounted to 28.1%.

Regarding `CCCSc1nc2c(c(=O)n(C)c(=O)n2C)n1C`, the “hERG current change (%, negative = inhibition) at 10uM” value amounted to 2.25%.

On to `CC1(C)CCc2cc(CN3CCN(c4ccccn4)CC3)ccc2O1`, for which the “hERG current change (%, negative = inhibition) at 10uM” value is 0.624%.

With `O=C(NC1CCCCC1)Nn1c(-c2ccccc2)nc2ccccc2c1=O`, the “hERG current change (%, negative = inhibition) at 10uM” value was -7.53%.

On to `COC(=O)c1ccc(C(=O)OC)c(NC(=O)CN2CCN(c3ccccc3)CC2)c1`, for which the “hERG current change (%, negative = inhibition) at 10uM” value is -5.1%.

Take `CCN(C(=O)c1cnc(OC)cc1C(F)(F)F)c1ccc(Cl)cc1Cl`: the “hERG current change (%, negative = inhibition) at 10uM” value is listed as 5.73%.

With `CC1=C(C(=O)OC(C)C)C2(O)C(=O)c3ccccc3C2(O)N1` (stereo not drawn), the “hERG current change (%, negative = inhibition) at 10uM” value is 12%.

Take `COc1ccc(-c2c(C)oc3ccc(C)cc23)cc1`: the “hERG current change (%, negative = inhibition) at 10uM” value is reported as 2.28%.

For the compound `S=C(NN=C(C1CC1)C1CC1)Nc1ccccc1`, the “hERG current change (%, negative = inhibition) at 10uM” value was 7.42%.

As to `COc1ccc(N2C(=O)CC(n3c(CCCCO)nc4ccccc43)C2=O)cc1` (stereo not drawn), the “hERG current change (%, negative = inhibition) at 10uM” value is 18.1%.

Take `Cc1ccc(OCCn2c(=O)cnc3ccccc32)cc1`: the “hERG current change (%, negative = inhibition) at 10uM” value is -9.95%.

For the compound `O=C(c1ccccc1)c1cn(CC(=O)N2CCCc3ccccc32)c2ccccc12`, the “hERG current change (%, negative = inhibition) at 10uM” value is -1.4%.

For `Clc1cccc(C2Nc3cccc4cccc(c34)N2)c1Cl`, the “hERG current change (%, negative = inhibition) at 10uM” value came to 16.2%.

In the case of `COCCN(C(=S)Nc1ccc(C)cc1)C(C)c1ccco1` (stereo not drawn), the “hERG current change (%, negative = inhibition) at 10uM” value worked out at 0.373%.

Take `Cc1ccc(C(=O)c2ccccc2C(=O)OCC(=O)Nc2cccc([N+](=O)[O-])c2)cc1`: the “hERG current change (%, negative = inhibition) at 10uM” value is -20%.

As to `O=C1C=C(/C=C/c2ccccc2)C[C@@H](c2ccc(F)cc2)C1`, the “hERG current change (%, negative = inhibition) at 10uM” value is recorded as -59.7%.

`CCOc1ccc(Cc2nnc(SCC(=O)c3ccc(OC)cc3)o2)cc1`: the “hERG current change (%, negative = inhibition) at 10uM” value is 8.18%.

As to `O=C(c1cccnc1)N1CCN(S(=O)(=O)c2ccc(F)cc2)CC1`, the “hERG current change (%, negative = inhibition) at 10uM” value came to 4.27%.

For `Cc1ccc(-c2nc3ccccc3n2C)o1`, the “hERG current change (%, negative = inhibition) at 10uM” value was 3.68%.
